Hit rate of the full screen: of about 360,000 compounds, about 17,000 (4.7%) were called active. The inconclusive results got no clear call from the source; some entries with a clear call stand among them for comparison. No stated cut-off is given here; in the data, active means activity change below about -50%; inconclusive means mostly about -30% to -49%; inactive means weaker than that.
assay: qHTS for Inhibitors of Inflammasome Signaling: IL-1-beta AlphaLISA Primary Screen; settings: THP-1 LPS/ATP IL-1B secretion, 16 h; at 57.5 µM, hits give low values
In short: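 THP-1 cells pretreated 1 hr with compounds (up to 57.5 uM final), then stimulated with LPS (250 ng/mL final) plus ATP (1.25 mM final); secreted IL-1B measured by AlphaLISA after 16 hr, decreased signal indicating inhibition.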
On the % scale 0 is the no-effect control and ±100 the full control effect.

Activity change, active:
O=C1c2ccccc2C(=O)c2c1cccc2N1CCOCC1 -80.6%
COc1ccc(NS(=O)(=O)c2ccc(OC)c(N(C)S(=O)(=O)c3ccc(Cl)cc3)c2)cc1 -82.9%
Cc1cccc(/C=C(\c2nc3ccccc3[nH]2)S(=O)(=O)c2ccccc2)c1 -110%
O=C(Cn1nc(-c2ccccc2)c2ccccc2c1=O)Nc1cccc(O)c1 -52.2%
Cc1nc2ccc(C(=O)Nc3cccc(OCC(=O)N(C)C)c3)cn2c1N(C)CC1CCCCC1 -50.9%
CC(C)c1ccc(NC(=O)Nc2nc(C(N)C(C)C)cs2)cc1 (stereo unspecified) -63.3%
O=C(CNC(=O)c1cc(Cl)cc([N+](=O)[O-])c1)OCC(=O)N1CCCCC1 -73.7%
CC(C)Nc1nc(NCCOc2ccccc2Cl)c2sccc2n1 -90.6%
CC1=C(C(=O)OCc2ccc3c(c2)OCO3)C(c2ccccc2OCc2ccccc2)NC(=O)N1 (stereo unspecified) -50.3%
CCOc1cc(C(=O)CSc2nnc(CNc3ccc(Cl)cc3)o2)ccc1NC(=O)CC -103%
CCOC(=O)CN1C(=O)CSc2ccc(S(=O)(=O)N3CCCC3)cc21 -51.8%
c1ccc(N2CCN(c3ccccc3)C2c2ccncc2)cc1 -68.8%
CC1CCN(CC(CS(=O)(=O)c2ccc([N+](=O)[O-])cc2)N2CCC(C)CC2)CC1 (stereo unspecified) -76.4%
N#CC1=C(N)OC2=C(CC/C2=C\c2ccccc2Cl)C1c1ccccc1Cl (stereo unspecified) -68%
O=[N+]([O-])c1cc(-c2nc(-c3ccncc3)no2)ccc1Cl -118%
CC1=C/C(=N\OS(=O)(=O)c2ccccc2)C=CC1=O -100%
COc1cccc(C(=O)/C=C/c2ccc(OCC#N)c(OC)c2)c1 -102%

Activity change, inactive:
Cc1ccc(CC(C)(O)CC(C)(O)Cc2ccc(C)cc2)cc1 (stereo unspecified) -3.11%
Cc1cc2c(cc1C)NC(=O)CC(c1ccccc1)=N2 -0.387%
O=[N+]([O-])c1cccc(P(=O)(O)c2cccc([N+](=O)[O-])c2)c1 20.2%
Cc1ccc2cc(F)c(F)c(F)c2n1 30.5%
CC1C(=O)N(Cc2cn(CC3CCCCC3)nn2)CCS(=O)(=O)N1Cc1ccc(-c2ccc(Cl)cc2)cc1 (stereo unspecified) -6.28%
CCOc1ccc(N2C(=O)CC(Sc3ncccn3)C2=O)cc1 (stereo unspecified) 8.15%
CC(=O)N1CCCN(Cc2cn(-c3cc(C)ccc3C)nc2-c2ccccc2)CC1 21.8%
COc1ccc(N2C(=O)CC(Sc3nnc(-c4ccccc4)o3)C2=O)cc1 (stereo unspecified) -28.8%
COc1ccc(-c2nn(-c3ccccc3)cc2/C=N/O)cc1OC -10.8%
C[C@@H]1CN([C@H](C)CO)C(=O)CCCn2cc(nn2)CO[C@H]1CN(C)S(C)(=O)=O -20.6%
O=c1[nH]c(=S)[nH]c2c1C(c1ccc(F)cc1)OC(CCC(F)(F)F)C2 (stereo unspecified) 13%
O=C(NCC1CCCCC1)c1cc(S(=O)(=O)N2CCCCC2)ccc1N1CCOCC1 -0.256%
O=C(O)c1ccc(N/N=C/C=C/c2ccc([N+](=O)[O-])o2)cc1 -15.1%
Cc1ccc(CNC(=O)COC(=O)c2cnccn2)cc1 2.68%
CCOC(=O)Cn1c(=O)oc2cc(S(=O)(=O)NCc3ccccn3)ccc21 20.1%
Cc1cccc2nc(COc3ccc4ccccc4c3Br)cn12 65.5%
Cc1ccc(/C(O)=C2/C(=O)C(=O)N(c3ccccn3)C2c2cccc([N+](=O)[O-])c2)cc1 (stereo unspecified) 23.2%
CCN(CC)C(=O)[C@H]1CC(CC(=O)NCCN2CCOCC2)C(=O)N2CCc3c([nH]c4ccc(OC)cc34)[C@]12C (stereo partly specified) -8.69%
CSc1nc(N)nc2c1ncn2C1OC(CO)C(O)C1O (stereo unspecified) 9.33%
COc1ccc(S(=O)(=O)N2CCC(C(=O)Nc3ccc(S(=O)(=O)N4CCCC4)cc3)CC2)cc1OC -12.1%
O=C(NCc1ccco1)C(c1ccco1)N(Cc1cccs1)C(=O)Cn1nnc2ccccc21 (stereo unspecified) -5.57%
Cn1cccc1C(=O)NNC(=O)c1ccccc1Br -4.96%
N/C(COc1ccc(Cl)cc1Cl)=N\NS(=O)(=O)c1ccccc1 -9.75%
CC(CC(F)(F)F)N1CCC(n2nccc2NC(=O)CCOc2ccccc2)CC1 (stereo unspecified) -11.2%
Cc1ccc(N(Cc2ccc(C(=O)NC3CCCCC3)cc2)S(C)(=O)=O)cc1C 4%
CN(C(=O)COC(=O)Cn1c(C(F)(F)F)nc2ccccc21)c1c(N)n(Cc2ccccc2)c(=O)[nH]c1=O
Oc1ccccc1C=NN=Cc1c(O)ccc2ccccc12 10.3%
CCc1nc(N[C@H](C(=O)O)C(C)C)c2oc3ccccc3c2n1 27.9%
CCN(CC(=O)Nc1c(F)cccc1F)C(=O)c1ccc2c(c1)OCCO2 -11.6%

Activity change, inconclusive:
Cc1ccccc1NC(=O)C1CCN(c2cc(-c3ccccc3)nc3ncnn23)CC1 -43.3%
Cc1nnc2sc(-c3ccc(NC(=O)CSc4ccc(Cl)cc4)cc3)nn12 -35.5%
Cc1cc(=O)n2nc(N3CCCC(C(=O)Nc4ccc(C)c(C)c4)C3)sc2n1 (stereo unspecified) -31.9%
Cc1ccc(C(C#N)c2ccc(C(=O)c3ccc(F)cc3)cc2)cc1 (stereo unspecified) -45.4%
CSc1cccc(NC(=S)N(CCN(C)C)C(C)c2ccncc2)c1 (stereo unspecified) -30.6%
CCCc1cc(C(N)=O)c(NC(=O)c2ccoc2C)s1 -31.2%
CCc1c(C)nc2cc(-c3cc(OC)cc(OC)c3)nn2c1N1CCCC1 -49.6%
NC(=O)N/N=C/c1cn(-c2ccccc2)nc1-c1ccccc1 -36.8%
COc1cccc(Oc2ccc(S(=O)(=O)N3CCCC3)cc2[N+](=O)[O-])c1 -33.5%
COc1cc(CCN(C(=O)c2cccc(S(C)(=O)=O)c2)C(CCc2ccccc2)c2nc3ccccc3[nH]2)cc(OC)c1 (stereo unspecified) -35.4%
CCOC(=O)C1=CN(Cc2cccc(F)c2)S(=O)(=O)NC1CCc1ccccc1 (stereo unspecified) -43.6%
O=C(Nc1ccc(N2CCCC2=O)cc1)c1cccc(F)c1 -42%
O=[N+]([O-])c1ccc(N2CCN(c3ccccc3)CC2)cc1 -35.6%
Cc1cc(C)nc(Sc2ccc3nnc(C(F)(F)C(F)(F)C(F)(F)F)n3n2)n1 -32.7%
C1COCCNCCOCCOCCN1 -31.5%
Cc1ccc(N2CC(C(=O)N3CCC(C(=O)Nc4nnc(C(C)(C)C)s4)CC3)CC2=O)cc1 (stereo unspecified) -33.3%
N#Cc1c(NCCN)nc(NCc2ccccc2)c2c1CCN(Cc1ccccc1)C2 -43.5%
Cc1cccc(CN2CCC(C(=O)Nc3cccc(-c4cccc(F)c4)c3)CC2)n1 -41.2%
N#CC(C#N)c1ccnc2ccccc12 -30.5%
CN1CCN(C(CNC(=O)C(=O)Nc2ccc3c(c2)OCO3)c2ccc(F)cc2)CC1 (stereo unspecified) -47.5%
CC1=C(C(=O)Nc2cccc(C)n2)C(c2ccc3c(c2)OCO3)C2=C(CC(c3ccco3)CC2=O)N1 (stereo unspecified) -38.6%
COC(=O)c1c(NC(=O)c2ccc(C)o2)sc2c1CCCCC2 -32.3%
CC(C)(C)OC(=O)N/N=C/c1cn(-c2ccccc2)nc1-c1cccnc1 -41.1%
CCOc1ccc(C(=O)c2nc3c(n2O)CCCCC3)cc1 -37.8%
CCOC(=O)C1=C(C)NC2=C(C(=O)CCC2)C1c1cn(Cc2ccc(Cl)cc2Cl)nc1-c1ccccc1 (stereo unspecified) -38.5%
Cc1cc(C)cc(NC(=O)c2cc(S(=O)(=O)NCc3ccco3)ccc2F)c1 -32.1%
Cc1ccc(NC(=O)COc2cccc(-n3cnnn3)c2)cc1[N+](=O)[O-] -47%
CCC(CO)Oc1cc(NC(=O)c2cccc(Cl)c2)c2ncn(C(C)C)c2c1 (stereo unspecified) -36.5%
CCn1c(SCC(=O)Nc2nc3ccccc3s2)nc2c(c1=O)SC(C)C2 (stereo unspecified) -38.5%
CC(=O)Nc1ccc(-c2csc(NCCc3ccccc3)n2)cc1 -47.4%
N/C(CCS(=O)(=O)c1ccc(Cl)cc1)=N\OC(=O)c1ccc(Cl)cc1 -37%
COC(=O)c1nc(NC(=O)c2ccc(C(C)(C)C)cc2)n[nH]1 -30.3%
CCNC(=O)c1c(O)c2c([nH]c1=O)CCCC2 -38.3%
CN(C)CCCO/N=C(\c1ccccc1)c1ccncc1 -33.6%
CCOc1ccc2nc(NC(=O)Nc3cccs3)sc2c1 -34.8%
COc1ccc(/C=C/CN2CCC(n3nccc3NC(=O)C3CCCC3)CC2)cc1 -31.6%
CCN(CC)S(=O)(=O)c1ccc2c(c1)N(CC(=O)NCCCN1CC(C)CC(C)C1)C(=O)CO2 (stereo unspecified) -36.5%
CC1CCCN(C(=O)c2ccc3c(c2NCCO)C(=O)c2ccccc2C3=O)C1 (stereo unspecified) -35.5%
Cc1cc(C)c2nc(C(F)(F)F)nc(N3CCN(C(=O)c4ccco4)CC3)c2c1 -31.6%
CCCn1cc(SCC(=O)Nc2ccc3c(c2)OCO3)c2ccccc21 -33.2%

Source: PubChem BioAssay AID743279 (National Center for Advancing Translational Sciences (NCATS), 2014)
